Experimental data as given in article PMC12689633.
These are yes or no findings as the source states them, for the method shown. Binding seen in cells or lysates may run through a third protein. Some binding calls cover weakened binding; strength is not graded here.

Protein sequences, listed by entry. Tags and fused reporters are not part of them. Lines headed by an entry give the natural chain unless they say otherwise; changes in a name come on top. Chains listed by the source or under a name are the forms on record and can include a tag or linker. Residues count along the entry.
USP28^hIF2 N-terminal region (aa1–650) (Q96RU2, residues 1-650): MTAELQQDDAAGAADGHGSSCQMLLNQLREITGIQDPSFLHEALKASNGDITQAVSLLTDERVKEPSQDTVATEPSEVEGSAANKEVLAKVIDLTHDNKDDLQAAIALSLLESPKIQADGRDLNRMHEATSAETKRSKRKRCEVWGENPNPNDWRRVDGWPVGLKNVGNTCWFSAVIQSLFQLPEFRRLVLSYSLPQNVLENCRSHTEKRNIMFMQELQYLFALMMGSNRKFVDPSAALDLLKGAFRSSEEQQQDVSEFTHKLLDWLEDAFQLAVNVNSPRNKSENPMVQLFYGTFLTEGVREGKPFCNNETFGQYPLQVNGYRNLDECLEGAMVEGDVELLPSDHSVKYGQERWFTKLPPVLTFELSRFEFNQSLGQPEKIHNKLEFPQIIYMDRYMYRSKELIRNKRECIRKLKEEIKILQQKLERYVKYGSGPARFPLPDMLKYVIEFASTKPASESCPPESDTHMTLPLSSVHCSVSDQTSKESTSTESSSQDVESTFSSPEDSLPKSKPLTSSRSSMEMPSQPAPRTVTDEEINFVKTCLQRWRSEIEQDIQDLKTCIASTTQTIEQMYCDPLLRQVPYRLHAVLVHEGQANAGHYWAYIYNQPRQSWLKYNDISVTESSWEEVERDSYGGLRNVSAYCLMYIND
USP28^hIF2 (human isoform 2) wildtype transgene (Q96RU2-2, form named): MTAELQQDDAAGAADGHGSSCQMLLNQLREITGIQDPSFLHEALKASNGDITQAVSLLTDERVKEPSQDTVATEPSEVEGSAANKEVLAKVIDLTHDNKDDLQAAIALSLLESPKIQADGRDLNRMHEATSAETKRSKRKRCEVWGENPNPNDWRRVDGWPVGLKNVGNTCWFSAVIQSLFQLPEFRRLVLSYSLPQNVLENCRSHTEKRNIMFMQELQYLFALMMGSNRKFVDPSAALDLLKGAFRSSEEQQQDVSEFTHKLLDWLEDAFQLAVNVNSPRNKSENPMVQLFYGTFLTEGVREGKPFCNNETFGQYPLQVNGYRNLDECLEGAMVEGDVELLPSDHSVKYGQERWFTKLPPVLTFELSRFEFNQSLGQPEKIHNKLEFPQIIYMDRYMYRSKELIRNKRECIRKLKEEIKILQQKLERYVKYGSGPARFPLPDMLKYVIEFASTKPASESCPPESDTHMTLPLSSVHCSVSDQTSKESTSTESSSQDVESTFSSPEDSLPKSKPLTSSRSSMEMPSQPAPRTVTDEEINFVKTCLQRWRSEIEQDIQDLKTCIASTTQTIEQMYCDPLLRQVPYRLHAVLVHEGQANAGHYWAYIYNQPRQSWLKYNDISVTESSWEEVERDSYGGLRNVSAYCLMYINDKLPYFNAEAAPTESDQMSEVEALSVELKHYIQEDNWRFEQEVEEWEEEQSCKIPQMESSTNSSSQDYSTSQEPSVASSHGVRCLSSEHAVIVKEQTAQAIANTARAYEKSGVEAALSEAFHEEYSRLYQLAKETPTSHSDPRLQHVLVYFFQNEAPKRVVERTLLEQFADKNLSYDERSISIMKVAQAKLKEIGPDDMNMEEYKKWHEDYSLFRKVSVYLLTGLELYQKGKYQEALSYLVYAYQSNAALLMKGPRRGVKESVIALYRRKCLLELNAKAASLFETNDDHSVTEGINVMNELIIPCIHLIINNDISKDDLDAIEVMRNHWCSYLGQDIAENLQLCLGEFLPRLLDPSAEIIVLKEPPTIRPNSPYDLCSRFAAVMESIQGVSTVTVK
USP28^hIF2 C171A (Q96RU2-2, form named): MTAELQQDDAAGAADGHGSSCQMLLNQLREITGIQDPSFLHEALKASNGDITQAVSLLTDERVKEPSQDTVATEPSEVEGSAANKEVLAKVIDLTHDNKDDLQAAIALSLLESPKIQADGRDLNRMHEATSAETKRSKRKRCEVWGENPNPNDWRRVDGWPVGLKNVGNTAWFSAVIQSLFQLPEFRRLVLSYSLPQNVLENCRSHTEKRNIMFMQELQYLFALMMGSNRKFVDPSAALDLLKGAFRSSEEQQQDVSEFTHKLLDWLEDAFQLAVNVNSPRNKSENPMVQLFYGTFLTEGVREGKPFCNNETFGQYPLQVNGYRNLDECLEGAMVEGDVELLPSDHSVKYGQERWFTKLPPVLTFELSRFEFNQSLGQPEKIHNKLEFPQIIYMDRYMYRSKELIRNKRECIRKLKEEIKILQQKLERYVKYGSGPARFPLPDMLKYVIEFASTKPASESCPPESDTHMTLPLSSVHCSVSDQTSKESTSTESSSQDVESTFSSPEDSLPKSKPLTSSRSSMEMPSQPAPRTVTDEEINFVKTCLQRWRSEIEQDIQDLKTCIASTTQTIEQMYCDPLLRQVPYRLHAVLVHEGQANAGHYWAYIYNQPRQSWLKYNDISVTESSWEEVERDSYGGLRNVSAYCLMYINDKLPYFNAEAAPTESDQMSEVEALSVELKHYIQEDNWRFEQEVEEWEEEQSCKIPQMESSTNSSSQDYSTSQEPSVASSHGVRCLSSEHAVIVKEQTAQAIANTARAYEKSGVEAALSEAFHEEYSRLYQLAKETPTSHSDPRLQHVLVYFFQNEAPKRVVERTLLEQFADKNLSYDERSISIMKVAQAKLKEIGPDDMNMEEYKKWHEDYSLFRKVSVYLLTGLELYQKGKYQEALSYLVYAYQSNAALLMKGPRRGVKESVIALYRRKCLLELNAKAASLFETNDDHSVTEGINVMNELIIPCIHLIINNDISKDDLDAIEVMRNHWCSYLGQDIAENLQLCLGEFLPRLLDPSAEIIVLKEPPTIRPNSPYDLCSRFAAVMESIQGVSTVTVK
USP28^hIF2 C-terminal region alone (aa651–1045) (Q96RU2-2, form named): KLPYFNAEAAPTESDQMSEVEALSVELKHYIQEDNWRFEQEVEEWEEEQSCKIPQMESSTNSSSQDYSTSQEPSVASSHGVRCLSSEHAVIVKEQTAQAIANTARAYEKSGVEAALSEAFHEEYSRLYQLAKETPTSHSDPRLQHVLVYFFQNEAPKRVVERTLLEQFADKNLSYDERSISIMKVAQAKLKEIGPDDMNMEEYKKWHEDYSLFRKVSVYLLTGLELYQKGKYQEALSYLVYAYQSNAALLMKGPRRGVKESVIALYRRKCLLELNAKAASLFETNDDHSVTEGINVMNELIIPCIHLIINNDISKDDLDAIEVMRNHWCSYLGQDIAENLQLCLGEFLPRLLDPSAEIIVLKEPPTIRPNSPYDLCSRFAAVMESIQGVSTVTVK
USP28^hIF2 D255N P287S (Q96RU2-2, form named): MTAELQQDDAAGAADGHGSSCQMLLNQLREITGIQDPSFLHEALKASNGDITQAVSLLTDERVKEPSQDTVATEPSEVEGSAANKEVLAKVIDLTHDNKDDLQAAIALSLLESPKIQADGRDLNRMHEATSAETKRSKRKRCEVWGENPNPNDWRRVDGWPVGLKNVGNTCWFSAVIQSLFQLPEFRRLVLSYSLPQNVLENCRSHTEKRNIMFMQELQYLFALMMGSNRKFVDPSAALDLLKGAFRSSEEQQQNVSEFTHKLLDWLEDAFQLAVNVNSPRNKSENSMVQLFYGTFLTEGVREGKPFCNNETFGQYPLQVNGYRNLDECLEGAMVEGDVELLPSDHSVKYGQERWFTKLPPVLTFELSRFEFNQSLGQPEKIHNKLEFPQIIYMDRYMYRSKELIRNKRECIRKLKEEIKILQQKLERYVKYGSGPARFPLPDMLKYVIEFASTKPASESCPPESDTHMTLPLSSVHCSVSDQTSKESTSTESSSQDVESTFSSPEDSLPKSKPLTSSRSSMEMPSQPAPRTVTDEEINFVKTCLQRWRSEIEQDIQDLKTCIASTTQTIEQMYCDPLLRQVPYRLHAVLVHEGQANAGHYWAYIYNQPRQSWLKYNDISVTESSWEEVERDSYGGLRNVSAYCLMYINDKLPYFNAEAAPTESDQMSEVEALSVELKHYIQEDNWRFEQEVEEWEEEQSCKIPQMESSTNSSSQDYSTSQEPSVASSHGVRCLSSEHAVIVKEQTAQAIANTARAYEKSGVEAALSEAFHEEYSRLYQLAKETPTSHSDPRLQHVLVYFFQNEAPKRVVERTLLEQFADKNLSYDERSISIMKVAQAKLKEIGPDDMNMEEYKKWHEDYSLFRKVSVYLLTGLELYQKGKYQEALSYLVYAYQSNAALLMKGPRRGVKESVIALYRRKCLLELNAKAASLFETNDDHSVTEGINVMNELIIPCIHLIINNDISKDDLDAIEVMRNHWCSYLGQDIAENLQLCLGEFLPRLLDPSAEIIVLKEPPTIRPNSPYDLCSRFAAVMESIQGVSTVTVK
USP28^hIF2 G903R (Q96RU2-2, form named): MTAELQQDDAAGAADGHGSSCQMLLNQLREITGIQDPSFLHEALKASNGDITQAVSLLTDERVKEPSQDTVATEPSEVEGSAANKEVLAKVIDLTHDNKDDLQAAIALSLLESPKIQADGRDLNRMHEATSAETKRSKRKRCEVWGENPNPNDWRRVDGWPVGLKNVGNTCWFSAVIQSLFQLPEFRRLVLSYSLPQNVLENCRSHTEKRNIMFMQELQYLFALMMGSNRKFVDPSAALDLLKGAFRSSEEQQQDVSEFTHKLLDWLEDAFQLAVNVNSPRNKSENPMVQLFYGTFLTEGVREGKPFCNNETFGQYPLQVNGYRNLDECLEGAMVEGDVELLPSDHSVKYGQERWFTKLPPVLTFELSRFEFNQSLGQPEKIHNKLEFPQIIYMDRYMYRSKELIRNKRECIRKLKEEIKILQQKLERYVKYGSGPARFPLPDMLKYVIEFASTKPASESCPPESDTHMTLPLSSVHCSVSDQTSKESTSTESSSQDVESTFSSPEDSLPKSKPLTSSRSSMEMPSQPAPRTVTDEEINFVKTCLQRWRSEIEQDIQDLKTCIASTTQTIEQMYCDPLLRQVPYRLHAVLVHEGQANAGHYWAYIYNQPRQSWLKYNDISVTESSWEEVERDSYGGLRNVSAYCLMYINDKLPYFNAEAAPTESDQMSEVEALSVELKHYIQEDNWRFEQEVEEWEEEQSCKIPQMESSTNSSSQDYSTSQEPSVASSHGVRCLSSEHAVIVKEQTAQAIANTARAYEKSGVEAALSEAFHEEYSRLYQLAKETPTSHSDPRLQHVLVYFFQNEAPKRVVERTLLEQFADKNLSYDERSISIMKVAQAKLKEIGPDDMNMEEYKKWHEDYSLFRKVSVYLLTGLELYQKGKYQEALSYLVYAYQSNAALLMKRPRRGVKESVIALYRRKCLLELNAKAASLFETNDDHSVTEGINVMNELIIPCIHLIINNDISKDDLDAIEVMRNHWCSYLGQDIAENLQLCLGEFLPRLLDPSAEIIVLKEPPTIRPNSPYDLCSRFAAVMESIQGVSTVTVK
USP28^hIF2 P953L (Q96RU2-2, form named): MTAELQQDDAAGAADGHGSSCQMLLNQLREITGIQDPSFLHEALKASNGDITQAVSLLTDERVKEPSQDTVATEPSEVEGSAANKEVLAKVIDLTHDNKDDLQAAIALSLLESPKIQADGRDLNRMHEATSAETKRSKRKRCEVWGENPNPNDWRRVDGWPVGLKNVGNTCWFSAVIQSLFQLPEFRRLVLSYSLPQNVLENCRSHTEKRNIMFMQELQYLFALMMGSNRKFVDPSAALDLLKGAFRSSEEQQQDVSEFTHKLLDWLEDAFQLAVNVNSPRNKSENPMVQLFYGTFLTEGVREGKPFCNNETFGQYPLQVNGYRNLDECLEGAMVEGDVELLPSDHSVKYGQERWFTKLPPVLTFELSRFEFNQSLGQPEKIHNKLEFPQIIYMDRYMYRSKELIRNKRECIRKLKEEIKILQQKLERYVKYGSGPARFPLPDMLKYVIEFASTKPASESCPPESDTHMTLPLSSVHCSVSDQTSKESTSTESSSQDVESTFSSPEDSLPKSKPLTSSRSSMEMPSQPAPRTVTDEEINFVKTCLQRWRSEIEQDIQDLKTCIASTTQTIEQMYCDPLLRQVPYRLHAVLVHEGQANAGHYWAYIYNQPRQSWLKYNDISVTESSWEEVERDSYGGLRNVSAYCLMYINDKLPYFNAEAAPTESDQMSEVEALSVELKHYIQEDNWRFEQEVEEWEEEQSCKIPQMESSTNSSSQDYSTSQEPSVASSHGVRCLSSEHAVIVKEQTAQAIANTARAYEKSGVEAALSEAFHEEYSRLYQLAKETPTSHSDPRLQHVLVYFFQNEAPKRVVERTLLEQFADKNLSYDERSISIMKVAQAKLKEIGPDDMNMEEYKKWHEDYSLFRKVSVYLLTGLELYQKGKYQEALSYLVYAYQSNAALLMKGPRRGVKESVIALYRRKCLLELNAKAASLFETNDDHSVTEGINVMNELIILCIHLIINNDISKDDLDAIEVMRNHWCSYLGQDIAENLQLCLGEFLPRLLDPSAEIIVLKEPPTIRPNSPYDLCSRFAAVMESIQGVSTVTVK

The substances below were run against p53-binding protein 1 (53BP1) (human (endogenous in RPE1)) (UniProt Q12888) (assay: co-IP; anti-53BP1 antibody and Protein A magnetic beads, 1-2 mg lysate of RPE1 or USP28∆ RPE1 cells with transgenes, arrested in mitosis with nocodazole (100 ng/ml, 8 or 16 h), in some panels also released 6 h into G1; 20 mM Tris-HCl pH 7.5, 50 mM NaCl, 0.5% Triton X-100, 5 mM EGTA, 1 mM DTT, 2 mM MgCl2, 4 °C; blots for USP28 or FLAG and p53).

Substance	binding
USP28^hIF2 C171A (from UniProt Q96RU2-2 1-1045)	binds
USP28^hIF2 D255N P287S (from UniProt Q96RU2-2 1-1045)	binds
USP28^hIF2 N-terminal region (aa1–650) (from UniProt Q96RU2-2 1-650) (domain or fragment)	no binding
USP28^hIF2 R141C (from UniProt Q96RU2-2 1-1045)	binds
USP28^hIF2 R1018Q (from UniProt Q96RU2-2 1-1045)	no binding
USP28^hIF2 V541E L545E (dimerization mutant) (from UniProt Q96RU2-2 1-1045)	no binding

Continued, values first:

binding	Substance
binds	USP28^hIF2 (human isoform 2) wildtype transgene (from UniProt Q96RU2-2 1-1045)
no binding	USP28^hIF2 C-terminal region alone (aa651–1045) (from UniProt Q96RU2-2 651-1045) (domain or fragment)
no binding	USP28^hIF2 G903R (from UniProt Q96RU2-2 1-1045)
no binding	USP28^hIF2 P953L (from UniProt Q96RU2-2 1-1045)
no binding	USP28^hIF2 R732C (from UniProt Q96RU2-2 1-1045)
no binding	USP28^hIF2 Δ13 (C-terminal truncation of the last 13 amino acids) (from UniProt Q96RU2-2 1-1032) (domain or fragment)
binds	USP28^hIF2 ∆460–520 (loop deletion) (from UniProt Q96RU2-2 1-1045)
